# Results from PubChem BioAssay AID720542 (National Center for Advancing Translational Sciences (NCATS), 2013).
# In all, about 360,000 compounds went through this assay and about 740 (0.21%) were called active. The shares of active, inactive and inconclusive entries below differ from those in the screen. The call rests on the fitted dose curve; in most records, active means well fitted inhibition curve with a large enough effect; inconclusive means small, poorly fitted or top-dose-only effect; inactive means no such curve, though single readings can be large or run the other way. Potencies of inconclusive entries are left out as doubtful fits.
# Tested on: Plasmodium falciparum AMA1 (3D7) - RON2 peptide interaction
# Experiment: qHTS for Inhibitors of AMA1-RON; Towards Development of Antimalarial Drug Lead: Primary Screen; further: nearly all actives have a fitted effect of over 45% in size;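 on activity change, negative = inhibition: 0% = vehicle wells and -100% = peptide control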
# Conditions: AlphaScreen AMA1-biotinylated RON2 peptide binding; activity change, negative = inhibition: at 58.2 µM (top of the series) unless noted
# Description: Plasmodium, the causative agent of malaria, is one of the world's deadliest parasitic diseases. Currently there is no vaccine available and there is widespread resistance to common anti-malarial drugs. This warrants novel, alternative approaches for developing improved therapy. During infection, one such essential interaction is between two parasite proteins, the apical membrane antigen1 (AMA1) that is translocated onto the merozoite surface and the rhoptry neck protein 2 (RON2), which is transferred to the red blood cells (RBC) membrane during invasion (Besteiro et.al., 2009). Recently, the Miller lab has shown that the interaction between AMA1 and RON2 is essential for junction formation of the parasite with the host cell (Srinivasan et.al., 2011). The binding of the RON2 peptide to the hydrophobic pocket in AMA triggers the formation of the moving junction which provides a firm anchor for the parasite to pull itself into the RBC using its actin-myosin motor; an irreversible step that commits the parasite for invasion. Only one AMA1 and RON2 genes exists in Plasmodium and there are no alternate pathways. Moreover, the region corresponding to RON2 peptide is conserved in all P. falciparum isolates for which sequences are available. The key residues in the AMA1 hydrophobic pocket that binds RON2 are also conserved and indicate a functional constraint governing this essential step in invasion since a short RON2 peptide (RON2L) corresponding to the binding region on AMA1 is sufficient to compete with the native RON2 protein and inhibits invasion (Tonkin et.al, 2011). Therefore, developing small molecule inhibitors of this interaction offers a promising target opening a new arena for anti-malarial therapeutics drug design.
# In collaboration with the Miller lab, a quantitative High Throughput Screen using the AlphScreen technology was developed using a recombinant his-tagged AMA1 and a biotinylated RON2 peptide. This fluorescent screen was assayed against the NIH Molecular Libraries Small Molecule Repository (MLSMR). Inhibition of this protein-protein interaction is the desired outcome of this assay. However, due the limitations of this AlphaScreen assay, a large number of artifacts were observed. An AlphaScreen counterscreen was run to identify the true inhibitors, triage compound activity, and weed out false positives.
# NIH Chemical Genomics Center [NCGC]
# NIH Molecular Libraries Probe Centers Network [MLPCN]
# Assay Submitter (PI): Louis Miller, National Institute of Allergy and Infectious Disease (NIAID)
# Two microliters of his-tagged AMA1 3D7 allele protein (final concentration 25 nM) was dispensed into a 1,536-well assay plate. Small molecules and positive control peptides were pin-transferred (23 nL or 46 nL) via Kalypsys pin-tool equipped with a 1,536-pin array, resulting in final compound and peptide concentration ranges of 91.5 nM - 57.2 µM, and 15.6 nM - 2.00 µM, respectively. Unlabeled RON2 peptide or R1 peptide ([…]) that specifically binds the 3D7 AMA1 was used as a positive control that inhibited the binding of RON2L to AMA1. After 15 minutes incubation, 1 uL of biotinylated RON2 peptide (final concentration 25 nM) or buffer were dispensed and the assay plate was incubated for an additional 30 minutes at room temperature and protected from light. This was followed by an addition of 1 uL mixture of donor and acceptor beads (10 ug/mL final concentrations for each). The plates were incubated for 30 min at room temperature and read using the EnVision(R) plate reader (PerkinElmer). Maximum inhibition response was normalized to the positive control signal while no inhibition response was normalized to the DMSO treated wells.
# Potency means the concentration at half of the fitted maximal effect; tags describe the fitted curve by direction and shape.
SMILES,Potency,"activity change, negative = inhibition"
Cc1ccc(-c2nn(-c3cc(Cl)ccc3[N+](=O)[O-])c(=O)c3ccccc23)cc1,"inconclusive [inhibitor, partial curve]",–
COC(=O)C1=C(C)N(c2cccc(OC)c2)C(=O)/C1=C\c1ccco1,"inconclusive [inhibitor, partial curve]",–
Brc1cc2c(cc1CN1CCN(c3ccccc3)CC1)OCCO2,active: 7.94 µM,–
CO/N=C/c1ccc(N2CCCC2)c([N+](=O)[O-])c1,"inconclusive [inhibitor, partial curve]",–
CCc1ccc(C(=O)COC(=O)CNC(=O)COc2ccccc2)cc1,"inconclusive [inhibitor, single point]",–
COc1ccc(C2CN=NC23CCc2ccccc2C3=O)cc1 (configuration not stated),inactive,–
CCn1cc([N+](=O)[O-])c(C(=O)N2N=C(c3ccc4ccccc4c3)CC2c2ccccc2O)n1 (configuration not stated),–,inconclusive: -12.3% [inhibitor]
CCOC(=O)c1cc(C(=O)NNC(=O)c2cccc([N+](=O)[O-])c2)c(C)nc1C,inactive,–
CCc1nc(SCc2ccccc2C)n[nH]1,inactive,–
COc1ccccc1NC(=O)CN(c1ccc(C)cc1)S(=O)(=O)c1c(C)n[nH]c1C,–,inconclusive: -10.7% [inhibitor]
O=C(COc1cc(F)ccc1[N+](=O)[O-])Nc1ccc(N2CCCCC2)cc1,"inconclusive [inhibitor, partial curve]",–
CCn1c(SCC(=O)Nc2ccc3c(c2)c2ccccc2n3CC)nnc1-c1ccco1,"inconclusive [inhibitor, single point]",–
Cc1ccc(S(=O)(=O)/N=C(\CN2CCOCC2)N2CCCC2)cc1,inactive,–
Cc1nc(NC(=O)C2CCCC2)sc1Cc1ccc2c(c1)OCO2,"inconclusive [inhibitor, partial curve]",–
Oc1ccc(N2CCN(c3nc(-c4cccs4)nc4ccccc34)CC2)cc1,"inconclusive [inhibitor, single point]",–
O=[N+]([O-])c1cc(S(=O)(=O)Nc2ccccc2)ccc1Nc1ccccc1,"inconclusive [inhibitor, single point]",–
O=[N+]([O-])c1ccc(Sc2ccccc2Cl)nc1,"inconclusive [inhibitor, partial curve]",–
CCOc1ccc(C(=O)NC(C)CCc2ccccc2)cc1 (configuration not stated),inactive,–
COC(=O)[C@@]12C[C@@H](CC(=O)N3CCC(c4ccccc4)CC3)C(=O)N(CCc3ccc(OC)c(OC)c3)C1=CCC(C)(C)C2,"inconclusive [inhibitor, partial curve]",–
CCOc1nc(Nc2ccc(OC)c(Cl)c2)nc(N2CCN(c3ccc(OC)cc3)CC2)n1,"inconclusive [inhibitor, partial curve]",–
O=C(OCn1ncc(Cl)c(Cl)c1=O)c1cccc(C(F)(F)F)c1,"inconclusive [inhibitor, full curve, poor fit]",–
CC1(C)OC(=O)C(=CNC(CCC(N)=O)C(=O)O)C(=O)O1 (configuration not stated),inactive,–
CC(C)(CO)NC(=O)c1ccc2c(c1)C(=O)c1ccccc1-2,inactive,–

SMILES,Potency,"activity change, negative = inhibition"
COc1cc(/C=C2/SC(=S)N(CC(=O)NC(C)(C)C)C2=O)cc(OC)c1OC,inactive,–
CC(C)NC(=O)C12CC3CC(C1)CC(n1cnc(Cl)n1)(C3)C2,"inconclusive [inhibitor, full curve]",–
C#CCOCCOCCOCCNc1nc(N2CCN(C(=O)[C@H](CCCCN)n3cc([C@@H](N)CC(C)C)nn3)CC2)nc(N2CCN(C(=O)[C@H](Cc3cc4ccccc4[nH]3)n3cc([C@@H](N)Cc4ccc(O)cc4)nn3)CC2)n1,"inconclusive [inhibitor, single point]",–
CCOC(=O)c1c(C)[nH]c(C(=O)CN2CCN(CC)CC2)c1C,"inconclusive [inhibitor, partial curve]",–
Cn1c(-c2cccc([N+](=O)[O-])c2)cnc1NCc1cccc(F)c1,"inconclusive [inhibitor, single point]",–
Cc1ccccc1CSc1nccn1-c1ccccc1,"inconclusive [inhibitor, partial curve]",–
CCn1ncc(NC(=S)NCCc2ccccc2)c1C(N)=O,"inconclusive [inhibitor, single point]",–
CN(Cc1ccccc1)c1oc(COc2ccccc2F)nc1C#N,"inconclusive [inhibitor, partial curve]",–
Cc1nc(C(=O)NNC(=O)c2cccc(Cl)c2)c(C(F)(F)F)o1,inactive,–
CCn1c(=O)c(C(=O)CN(C)Cc2cccc(OC)c2OC)c(N)n(Cc2ccccc2)c1=O,"inconclusive [inhibitor, partial curve]",–
O=C(Cn1nc2ccccc2n1)N/N=C/c1cc([N+](=O)[O-])ccc1O,inactive,–
COc1cccc(OC)c1C(=O)Nc1ccc(C(=O)c2ccncc2)cc1,inactive,–
O=C(CCCN1C(=O)/C(=C/c2ccccc2)SC1=S)N1CCOCC1,"inconclusive [inhibitor, partial curve]",–
Cc1ccc(S(=O)(=O)N2CCN(C(=O)c3ccc(N4CCCC4)c([N+](=O)[O-])c3)CC2)cc1,"inconclusive [inhibitor, partial curve, poor fit]",–
N#CC(c1ccccc1)c1ccc2c(C(F)(F)F)cc(C(F)(F)F)nc2n1 (configuration not stated),"inconclusive [inhibitor, partial curve]",–
CC(C)c1nnc(SCC(=O)N2CCc3ccccc32)n1N,"inconclusive [inhibitor, partial curve, poor fit]",–
COc1ccc(OCCNc2cc(N3CCOCC3)ccc2[N+](=O)[O-])cc1,inactive,–
CC(C)c1ccc(OCCCCCN2CCOCC2)cc1,"inconclusive [inhibitor, partial curve]",–
Fc1cccc(F)c1-n1c(CN2CCCCC2)csc1=S,"inconclusive [inhibitor, single point]",–
O=C(/C=C/c1ccco1)c1ccccc1O,"inconclusive [inhibitor, single point]",–
CN(CC(=O)NCC(c1ccco1)N1CCCCC1)S(=O)(=O)c1ccc(Cl)cc1 (configuration not stated),"inconclusive [inhibitor, single point]",–
COc1ccc(C(C)(C)C)cc1NC(=O)CNc1cccc2ccccc12,"inconclusive [inhibitor, single point]",–
O=C(NCCSCc1ccco1)c1ccc(=O)[nH]c1,inactive,–

SMILES,Potency,"activity change, negative = inhibition"
COc1ccccc1C(=O)N1c2ccccc2Sc2ccccc21,–,inconclusive: -30.5% [inhibitor]
Cc1cccc(CN2CCC(CNC(=O)CCNC(=O)Cn3ccc4ccccc4c3=O)CC2)c1,"inconclusive [inhibitor, partial curve]",–
Cc1ccc(CN(C)C(=O)C2CCN(C(=O)Nc3ccccc3)CC2)o1,inactive,–
COc1ccc(-n2cc(-c3ccccc3)c3c(=O)[nH]cnc32)cc1,"inconclusive [inhibitor, single point]",–
COc1ccc2nc3cc(Cl)ccc3c(Nc3ccc(O)c(CN4CCN(C)CC4)c3)c2c1,"inconclusive [inhibitor, single point]",–
O=C1N=C(N2CCOCC2)SC1=C1CCCCC1,inactive,–
CCCSC1=N/C(=C\c2ccc([N+](=O)[O-])o2)C(=O)S1,"inconclusive [inhibitor, single point]",–
Cc1cccc(S(=O)(=O)N(C)C[C@H]2OCc3cnnn3CCCC(=O)N([C@H](C)CO)C[C@@H]2C)c1,inactive,–
CC1CCN(CCCNC(=O)c2cc3c(=O)n(C)c4ccccc4c3n2C)CC1,inactive,–
CC(=O)c1cccc(NC(=O)c2cccc(NC(=O)c3ccco3)c2)c1,"inconclusive [inhibitor, single point]",–
O=[N+]([O-])c1ccccc1SN(Cc1ccccc1)c1ccccn1,"inconclusive [inhibitor, single point]",–
CCc1c(C)nc2c(C#N)c[nH]n2c1=O,inactive,–
CCOC(=O)C(NC(=O)c1ccccc1)(Nc1cc(C)on1)C(F)(F)F (configuration not stated),"inconclusive [inhibitor, partial curve]",–
c1cnc2ccc(C(c3nnnn3C3CCCC3)N3CCN4CCCC4C3)cc2c1 (configuration not stated),"inconclusive [inhibitor, full curve, poor fit]",–
CC[C@@]1(O)C(=O)OCc2c1cc1n(c2=O)Cc2cc3c(CN(C)C)c(O)ccc3nc2-1,"inconclusive [inhibitor, partial curve]",–
CCCCNC(=O)CSc1nc2ccsc2c(=O)n1C1CCN(C(=O)OCC)CC1,inactive,–
CCOC(=O)C1=C(CC)Nc2ccccc2N=C1NC(=O)Nc1ccc(Cl)c(Cl)c1,"inconclusive [inhibitor, single point]",–
COP(=O)(OC)C(NC(=O)c1ccc(C)cc1)C(Cl)(Cl)Cl (configuration not stated),"inconclusive [inhibitor, partial curve]",–
Cc1c(C(=O)NC2CCN(Cc3ccccc3)C2)oc2ccc(Br)cc12 (configuration not stated),"inconclusive [inhibitor, single point]",–
c1ccc(NCCCNc2ccccc2)cc1,"inconclusive [inhibitor, single point]",–
O=S(=O)(NCC(c1ccc2c(c1)OCO2)N1CCN(c2ccccc2)CC1)c1ccccc1 (configuration not stated),"inconclusive [inhibitor, partial curve]",–
